Experimental data: the supplement of paper PMC11417369
This is one part of the list.

system: PfAP2-HC AP2 domain (GST-tagged); test: gcPBM binding intensity (ln(normalized median fluorescence intensity)); higher = stronger DNA binding
In short: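 Each value is the highest Masliner-normalised natural-log median intensity across replicate spots of either orientation of a probe. The probes were primer-extended double-stranded 36-bp intergenic genomic sequences on an Agilent 4 × 180k array, alongside negative controls, exposed for 1 h to GST-tagged P. falciparum DNA-binding domains expressed in E. coli. Bound protein was picked up with Alexa488 anti-GST antibody and scanned at 488 nm.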

Row | Sequence | gcPBM binding intensity (ln)
1 | ATATATATTTTTATAACACACAATGAAGTACATTAC [CACACA_site8270] | 9.7
2 | ATATAATATGGTATTACACACTGTTAAAAGTATGGC [CACACA_site5190] | 9.85
3 | ATATAGAACACCTGTGCATGCAAGTGCTAAAAAATT [TGCATGCA_site213] | 10
4 | TAATATTATTTAGAGTGTACTCATAAATCAACAAAA [XGTACX_site5269] | 9.4
5 | CTAAGCTAAGTAAGCTGTACTTCACCTTTATACAGT [XGTACX_site3087] | 9.61
6 | CTATTTTTATATTATTGTACGTTGTTATTATATATA [XGTACX_site1469] | 9.81
7 | TTTATATTTATATATACACACATATACATCCTATTT [CACACA_site3079] | 9.94
8 | ATATATATGGAAACAGTGCAATACATATATATATAT | 9.86
9 | TTTTTTTTTTTTAATACACACATATTTATATTTATT [CACACA_site7802] | 9.82
10 | TTTTTCTTAAAAAATTGTACACATATATATATATAT [XGTACX_site542] | 9.81
11 | ATTAAGTTAAACATTACACACTATGTATTATTTATG [CACACA_site973] | 9.84
12 | AATTGGGTAGGACATGCATGAGAAATTAATATTGCA [TGCATGCA_site356] | 9.96
13 | ATATATATATATATATGTACTAACCTTTTAAAATAT [XGTACX_site6488] | 9.65
14 | TATTACATTGTTGAATGTACTCATTTAAAATTTATA [XGTACX_site7987] | 9.51
15 | AATCAAAGCCCACATACACACACATATATATATATA [CACACA_site7987] | 10.3
16 | ATGTCAAACATTTGCACACAAAAAAATAAAAATTAA [CACACA_site692] | 9.93
17 | TTATACTAAATGAACACACACACATCTATATTTATA [CACACA_site6199] | 10.3
18 | AATTAAAATAATAATACACACATCATAGAAAAAGAC [CACACA_site292] | 10.2
19 | AAATTAGACTATAATACACACATAAAAAAAAAATCA [CACACA_site7672] | 9.82

Row | Sequence | gcPBM binding intensity (ln)
20 | TTTTTTTTTTTTTTCTCACACATTTAATGATAATAT [CACACA_site5513] | 9.67
21 | CATATTTACTATCACACACACGATATATATAAATAT [CACACA_site1241] | 10.5
22 | TTTTTTTTTTTTTGCACACACATAATAGGTACAAAT [CACACA_site3577] | 9.89
23 | ATTTATATTAATGGATAAATAAATGTGTACTTGATA [CACACA_negctrl_site24] | 9.58
24 | TTCTTTATTATATGCACACGTACATATAATATATAT [CACACA_site2018] | 9.96
25 | ATCAACAAAACATACACACACATATAGATTTATATA [CACACA_site7415] | 10.2
26 | AAAAAAAAAAAACACACACACATATATATATATATA [CACACA_site732] | 11.1
27 | TTATGTAAAATCGATACATGCATTAATCATTTTATA [TGCATGCA_site493] | 9.57
28 | TCATATTTCCATAGGAGTACATAAAAAAAATAATAT [XGTACX_site7601] | 9.57
29 | TATGATATGTTATACACACACGTATTTATGAATTGA [CACACA_site7591] | 9.89
30 | AAAATGTAGAAATGGGTGCACACACATATATAATAT | 10.4
31 | TATATATATAAAAGTTGTACAGTGTTTTATATAGTT [XGTACX_site7085] | 9.69
32 | AATTAGCTATTTAAAAATATATAAAATTTATATATA [CACACA_negctrl_site390] | 9.36
33 | GAAATAGAGAGACACACACACATATATTTATGTATT [CACACA_site7794] | 10.4
34 | ATCATATTGAATATTTAACACACATTTCGCTTAATT [CACACA_site8652] | 9.8
35 | TAATGCATTATTAGAATACACACCATACGCATATTT [CACACA_site289] | 9.77
36 | TGATGTTGTAACAAAAGTACACACACATTTCTATAA [XGTACX_site5837] | 9.96
37 | TTTTCAATTAATAATACACACATGTATATATCATTA [CACACA_site7539] | 9.75
38 | TTTTTCTTTTGATGTTGTACATATATATTATATATA [XGTACX_site2754] | 9.72

Row | Sequence | gcPBM binding intensity (ln)
39 | AACTGTACAATTTTTGTGCACAATAATTATTAATAT [GTGCAC_site9462] | 9.64
40 | TGCTATATAATATGAGCACACATAAGATTTGGTGTT [CACACA_site8148] | 9.66
41 | ATATTTTTATTTAAACGTACATACACGTTGAAAAGA [XGTACX_site4567] | 9.43
42 | AACTATAAAAAAAATACACACATTACCAAAAATATA [CACACA_site1529] | 10.2
43 | AATCTGATTTGTATATGTACACAAATATTTTTATTT [XGTACX_site5295] | 9.9
44 | TTTAATAATTATTAAAGTACAAAATAAATATTGAAT [XGTACX_site7538] | 9.68
45 | TATAAAAAAATATATATATATATATATATATAAATA [TGCATGCA_negctrl_site22] | 9.45
46 | AAGAAAAAAAAAAAAAATATATATATAAGAACATAT [TGCATGCA_negctrl_site131] | 9.71
47 | GATAAAACGTTATGCACACGTACGTGGGTATTTATA [CACACA_site4954] | 10.1
48 | AAAAAAAAAAAATACACACACACATATTTATTTATA [CACACA_site6483] | 10.6
49 | AAAAAAAAAAATAAATGTACAAAATAATGGGGAACA [XGTACX_site8723] | 9.96
50 | GTGAATGATTTAAGTACACACCGGTATTTATTCAAA [CACACA_site4950] | 9.66
51 | ATATATATATATATATGTACATATTTTATTTAATTT [XGTACX_site1807] | 9.85
52 | TGTATTAAAAATTTGGTGCAACTTTTACATAATAAT | 9.66
53 | TTTTTTTTTTTTTTTTGTACGAATAAACAAGTTATT [XGTACX_site5473] | 9.16
54 | AATATTTATATTAACTGTACAGAAAATATCTTTGCT [XGTACX_site8130] | 9.62
55 | TTCTTTTTTTTTTTTTCATGTATATTAAACTTTTCA [TGCATGCA_negctrl_site592] | 9.66
56 | GATATATAAATTGACACACACATATATACCTATATA [CACACA_site6689] | 10.3
57 | CATAAGATTTTTACATGTACATATTTATAATATATT [XGTACX_site6578] | 9.87
